Common to all, as to experiment: Primary Screen for Target Class Profiling of Small Molecule Inhibitors of Methyltransferases
Assay [1] has as its target Glycine N-methyltransferase (Homo sapiens) (UniProt Q14749). The following applies: purified enzyme, MTase-Glo SAH luminescence; measured here: GNMT inhibition; at 40 µM; stronger effect = lower value. In short, it runs like this: (§1)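 Each enzyme was reacted with SAM and its substrate, with compounds tested once at 40 uM; SAH formed was read by MTase-Glo luminescence.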
Assay [2] addresses Guanidinoacetate N-methyltransferase (Homo sapiens) (UniProt Q14353). The settings on record: purified enzyme, MTase-Glo SAH luminescence; measured here: GAMT inhibition; at 40 µM; stronger effect = lower value. In short, it runs like this:
as §1

The target of assay [3] is Histamine N-methyltransferase (Homo sapiens) (UniProt P50135). The following applies: purified enzyme, MTase-Glo SAH luminescence; measured here: HNMT inhibition; at 40 µM; stronger effect = lower value. In short, it runs like this:
as §1

Assay [4] addresses Nicotinamide N-methyltransferase (Homo sapiens) (UniProt P40261). The following applies: purified enzyme, MTase-Glo SAH luminescence; measured here: NNMT inhibition; at 40 µM; stronger effect = lower value. In short, it runs like this:
as §1

Assay [5] has as its target Phenylethanolamine N-methyltransferase (Homo sapiens) (UniProt P11086). The following applies: purified enzyme, MTase-Glo SAH luminescence; measured here: PNMT inhibition; at 40 µM; stronger effect = lower value. The method, boiled down:
as §1

The other results are listed elsewhere or left out. Shown are side measurements of this screen, not its main read-out; they come without a call.
% is set by controls: 0 for no effect and ±100 for the full control effect.

For the molecule `CCCC1c2ccc(C)n2CCN1C(=O)Nc1cc(OC)cc(OC)c1` (stereo not given), the activity change, negative = inhibition is -2.46% in assay [1]; 0% in assay [2]; -8.15% in assay [3]; 0.934% in assay [4]; -5.21% in assay [5].
As to `CC(=O)N1CCOc2ccc(CCC(=O)N3CCN(C4CCCCC4)CC3)cc2C1`, the activity change, negative = inhibition in assay [1] was -3.25%; in assay [2], -2.47%; in assay [3], -3.31%; in assay [4], -6.04%; in assay [5], 21.1%.
Consider `CC(C)Cn1c(=O)c2ccc(C(=O)NC(C)C)cc2n2c(=O)n(Cc3ccc(N4CCCC4=O)cc3)nc12`, for which the activity change, negative = inhibition in assay [1] was -0.815%; in assay [2], 1.38%; in assay [3] it was -2%; in assay [4], -4.78%; in assay [5], -1.82%.
The matching figures for `C=C(C)[C@@H]1CC[C@]2(C(=O)O)CC[C@]3(C)C(CCC4[C@]5(C)C(CC[C@]43C)C(C)(C)[C@@H](O)[C@@H]5C(=O)O)C12` (stereo not given in full): 3.32%, 4.24%, 11.6%, -9.22% and 1.49%.
For the molecule `C=CCNc1nc(C)nc2c1CCN(C(=O)Cc1nnc(N)s1)CC2`, the activity change, negative = inhibition was -5.49% in assay [1]; -4.66% in assay [2]; -3.33% in assay [3]; -4.4% in assay [4]; -0.195% in assay [5].
In the case of `CC1CC(=O)C2=C(C1)C1OC1C1(O)C2C(=O)c2cccc(O)c2C1O` (stereo not given), the activity change, negative = inhibition in assay [1] is -2.26%; in assay [2] it was -1.43%; in assay [3] it was 5.72%; in assay [4], -12.1%; in assay [5] it was 0.203%.
Regarding `Cc1cc(S(=O)(=O)N[C@@H]2CCOC[C@H]2Oc2ccccn2)c(C)s1`, the activity change, negative = inhibition was -2.8% in assay [1]; -1.01% in assay [2]; -0.953% in assay [3]; -6.64% in assay [4]; 3.74% in assay [5].
As to `CCN1c2cc(C(=O)NCc3cccc(OC)c3)ccc2C(=O)N2CCCCCC21` (stereo not given), the activity change, negative = inhibition is -5.64% in assay [1]; -6.22% in assay [2]; -6.51% in assay [3]; -10.2% in assay [4]; -4.16% in assay [5].
As for `COC[C@H]1C[C@@H](NC(=O)Nc2cccnc2)[C@H](O)[C@@H]1O`, the activity change, negative = inhibition in assay [1] was -4.66%; in assay [2], -3.52%; in assay [3], -17.5%; in assay [4], -16.1%; in assay [5], -9.56%.
Regarding `Cn1c(=O)c2ccc(C(=O)NC3CCCC3)cc2n2c(SCc3ccc(F)cc3)nnc12`, the activity change, negative = inhibition in assay [1] is -10.1%; in assay [2], -0.914%; in assay [3] it was 0.466%; in assay [4], -4.87%; in assay [5], -2.94%.
For the molecule `O=[S+]([O-])(c1cccs1)N1CCCC2(CC(c3ccccc3)=NO2)C1` (stereo not given), the activity change, negative = inhibition in assay [1] was -12.4%; in assay [2] it was -5.99%; in assay [3], -1.29%; in assay [4], -19.1%; in assay [5], -12%.
The corresponding values for `Cc1ccc(OC[C@H](O)[C@H](C)NC(C)C)c2c1CCC2` are -3.31%, -3.2%, 0.073%, -12.3% and 1.65%.
Turning to `Cc1ccccc1CN1C(=O)c2ccc(-c3ccccc3)n2CC1(C)C(=O)NC1CCCC1` (stereo not given), the activity change, negative = inhibition was found to be 5.82% in assay [1]; 0% in assay [2]; 5.69% in assay [3]; 5.75% in assay [4]; 6.4% in assay [5].
In the case of `COc1ccc(CN2C(=O)c3ccc(-c4ccccc4)n3CC2(C)C(=O)NC2CCCC2)cc1OC` (stereo not given), the activity change, negative = inhibition is -1.16% in assay [1]; 0.128% in assay [2]; 3.11% in assay [3]; -5.34% in assay [4]; 0.763% in assay [5].
Regarding `CCCn1c(C)c(CC(=O)NCC2COCCO2)c2c1CC(C)(C)CC2=O` (stereo not given), the activity change, negative = inhibition in assay [1] is -0.852%; in assay [2] it was 0.518%; in assay [3] it was 2.76%; in assay [4], 0.489%; in assay [5] it was -15.1%.
Turning to `Cc1cccc(Cn2nc3n(Cc4ccc(F)cc4)c(=O)c4ccccc4n3c2=O)c1`, the activity change, negative = inhibition in assay [1] is 0.93%; in assay [2] it was 0%; in assay [3], 3.75%; in assay [4], 4.92%; in assay [5] it was 0.859%.
On to `CC(C)=CCC/C(C)=C/Cc1ccc(O)c(C2OC(=O)c3cc(C(=O)O)cc(O)c32)c1O` (stereo not given), for which the activity change, negative = inhibition in assay [1] is -1.81%; in assay [2] it was -14.5%; in assay [3], 5.17%; in assay [4], -30%; in assay [5], -10.9%.
As for `Cc1ccc(Cn2c(=O)c3ccccc3n3c(CCC(=O)Nc4cccc(Cl)c4)nnc23)cc1`, the activity change, negative = inhibition in assay [1] is -1.52%; in assay [2], 1.29%; in assay [3], 8.07%; in assay [4] it was -0.365%; in assay [5], 0.273%.
Turning to `CC(C)n1nc(C#Cc2ccccc2)c2c(N)ncnc21`, the activity change, negative = inhibition in assay [1] is -7.42%; in assay [2], 3.03%; in assay [3], 0.398%; in assay [4], -29.5%; in assay [5], -16.8%.
Consider `CC1(C(=O)NC2CCCCC2)Cn2nc(-c3cccs3)cc2C(=O)N1c1ccc(F)cc1` (stereo not given), for which the activity change, negative = inhibition in assay [1] is 3.59%; in assay [2], 0%; in assay [3], 7.76%; in assay [4], 3.85%; in assay [5], 4.95%.
`CCC(C)NC(=O)c1ccc2c(=O)n(C)c3nnc(SCC(=O)c4cc(C)ccc4C)n3c2c1` (stereo not given): the activity change, negative = inhibition in assay [1] is 6.59%; in assay [2], 0.249%; in assay [3], 6.97%; in assay [4] it was 7.39%; in assay [5], 4.49%.
With `CC(C)Cn1c(=O)n(CC(C)N2CCCC2)c2cc(C(=O)O)cnc21` (stereo not given), the activity change, negative = inhibition in assay [1] is -4.04%; in assay [2], -7.07%; in assay [3] it was -2.44%; in assay [4], -9.31%; in assay [5], -7.41%.
In the case of `Cc1ccc(CN2C(=O)c3cc4sccc4n3CC2(C)C(=O)NC2CCCCCCC2)cc1` (stereo not given), the activity change, negative = inhibition in assay [1] is 1.31%; in assay [2], 4.65%; in assay [3], 6.02%; in assay [4], -1.54%; in assay [5], 3.14%.
Regarding `O=C(CCc1nnc2n(CCc3ccccc3)c(=O)c3ccccc3n12)N1CCN(c2ccccc2F)CC1`, the activity change, negative = inhibition in assay [1] is -2.48%; in assay [2], 0.225%; in assay [3] it was 2.24%; in assay [4], -29.9%; in assay [5], 0.752%.
Regarding `CCCn1c(=O)c2ccc(C(=O)NC(C)C)cc2n2c(=O)n(Cc3cccc(Cl)c3)nc12`, the activity change, negative = inhibition was 2.19% in assay [1]; 0.337% in assay [2]; 8.11% in assay [3]; -2.33% in assay [4]; 4.86% in assay [5].
Take `N#Cc1cc(C2=Nc3ccc(Br)cc3NC(=O)C2)ccn1`: the activity change, negative = inhibition in assay [1] is -40.7%; in assay [2] it was -3.76%; in assay [3], 2.78%; in assay [4], -20.3%; in assay [5], -4.59%.
The matching figures for `CC(C)c1cc2n(n1)CC(C)(C(=O)NC1CCCCCC1)N(c1ccc(Cl)cc1)C2=O` (stereo not given): -0.165%, 0.015%, 4.94%, 2.4% and -0.615%.
Regarding `CC(N)=O`, the activity change, negative = inhibition was 4.03% in assay [1]; -7.7% in assay [2]; 7.6% in assay [3]; -10% in assay [4]; -3.56% in assay [5].
The matching figures for `CCOc1ccc(C(=O)Cn2nc3n(C(C)C)c(=O)c4ccc(C(=O)NC(C)C)cc4n3c2=O)cc1`: -1.07%, 4.78%, 2.6%, 2.69% and 2.18%.
For `Cc1ccc(N2C(=O)c3cc(-c4cccs4)nn3CC2(C)C(=O)NC2CCCCC2)cc1C` (stereo not given), the activity change, negative = inhibition in assay [1] was 5.62%; in assay [2] it was 3.01%; in assay [3], 9.51%; in assay [4], 5.77%; in assay [5], 3.99%.
The corresponding values for `O=C1NC(=NC2CCCCC2)C2(CCCN([S+](=O)([O-])c3cccc(C(F)(F)F)c3)C2)N1c1cc(F)cc(F)c1` (stereo not given) are -4.41%, -2.59%, -0.701%, -13% and -2.04%.
For the molecule `O=C(CCc1nnc2n(CCc3ccccc3)c(=O)c3ccccc3n12)NCCc1ccc(Cl)cc1`, the activity change, negative = inhibition is -5.25% in assay [1]; -0.296% in assay [2]; 0.715% in assay [3]; 3.11% in assay [4]; -5.76% in assay [5].
The matching figures for `COc1ccc2cc3n(c2c1)CC(C)(C(=O)NCC1CCCO1)N(Cc1cccc(Cl)c1)C3=O` (stereo not given): 2.95%, 0.557%, 3.8%, 9.86% and 1.63%.
Take `COc1ccc(C(=O)N[C@@H]2CCOC[C@H]2Oc2ccccn2)c(F)c1F`: the activity change, negative = inhibition in assay [1] is -0.912%; in assay [2] it was -3.03%; in assay [3], -0.709%; in assay [4], -4.33%; in assay [5] it was -2.13%.
With `CC1(C(=O)NCc2ccc(Cl)cc2)Cn2c(ccc2-c2ccco2)C(=O)N1CCc1cccs1` (stereo not given), the activity change, negative = inhibition in assay [1] is -19.4%; in assay [2], -14%; in assay [3], -8.04%; in assay [4], -19.2%; in assay [5] it was -10.2%.
The matching figures for `CCc1c(CC(N)=O)c2cc(OCCCP(=O)(O)O)ccc2n1Cc1ccccc1`: 1.49%, 5.34%, 11.1%, -9.91% and 3.4%.
Consider `CC1=NS(=O)(=O)N(C)C=C1C(=O)OCc1nc(C)no1`, for which the activity change, negative = inhibition in assay [1] was -0.802%; in assay [2], -0.587%; in assay [3], 1.14%; in assay [4] it was -3.1%; in assay [5], -5.19%.
Consider `Cc1ccc(NC(=O)CCc2nnc3n(Cc4ccccc4Cl)c(=O)c4ccccc4n23)cc1C`, for which the activity change, negative = inhibition in assay [1] is 3.75%; in assay [2] it was -2.24%; in assay [3] it was -1.94%; in assay [4], 4.46%; in assay [5], -7.96%.

(Values after PubChem BioAssay AID1745853 (National Center for Advancing Translational Sciences (NCATS), 2022).)
